{"source": "the supplement of paper PMC3334620", "note": "In all, about 33,000 sequences were measured (“E-score (-0.5 to 0.5)”: median about -0.016, highest 2% from about 0.31 on). The list shows a part of the results."}
{"target": "Cst6 (UniProt P40535)", "assay": "PBM E-score (8-mer binding enrichment) (E-score (-0.5 to 0.5)); higher = stronger / more preferred TF binding; most listed sequences are background and not binding sites", "conditions": "protein concentration: 200 nM; construct: GST-DNA-binding domain", "outline": "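Using PURExpress in vitro transcription/translation, GST-tagged yeast transcription factors were made in full-length or DNA-binding-domain form. These were applied at about 100-200 nM to double-stranded universal all-10-mer Agilent arrays, and bound protein was detected with fluorescent anti-GST. Scans were normalised with masliner before the Universal PBM Analysis Suite assigned E-scores to ungapped eight-base words pooled with their reverse complements.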"}
{"sequence": "ATGCAAGG", "PBM E-score": -0.188}
{"sequence": "CCCTTTGA", "PBM E-score": -0.0711}
{"sequence": "GCCGCACA", "PBM E-score": 0.23}
{"sequence": "ATATAACC", "PBM E-score": 0.0717}
{"sequence": "AAACCTAG", "PBM E-score": -0.252}
{"sequence": "GCAGCCCA", "PBM E-score": -0.283}
{"sequence": "ACGCCGAT", "PBM E-score": 0.0638}
{"sequence": "AGCCAACT", "PBM E-score": -0.159}
{"sequence": "GAGCGTAA", "PBM E-score": 0.199}
{"sequence": "GGAAGACC", "PBM E-score": -0.392}
{"sequence": "AACTGATT", "PBM E-score": 0.0959}
{"sequence": "CACATAAG", "PBM E-score": -0.00296}
{"sequence": "GCAAAGGC", "PBM E-score": -0.126}
{"sequence": "CACCGGGA", "PBM E-score": -0.118}
{"sequence": "AGTATACT", "PBM E-score": -0.089}
{"sequence": "ATTAGAAA", "PBM E-score": 0.138}
{"sequence": "AATACGAA", "PBM E-score": 0.106}
{"sequence": "CATTTAGC", "PBM E-score": -0.0329}
{"sequence": "GTAGAAGA", "PBM E-score": -0.056}
{"sequence": "CCGCCCTA", "PBM E-score": -0.191}
{"sequence": "GAAGAGAC", "PBM E-score": -0.114}
{"sequence": "AACAGCTA", "PBM E-score": 0.00217}
{"sequence": "CACAACCC", "PBM E-score": -0.0948}
{"sequence": "AGCGTGCG", "PBM E-score": 0.105}
{"sequence": "CCATATAA", "PBM E-score": 0.105}
{"sequence": "AATCTGCT", "PBM E-score": 0.0692}
{"sequence": "AGGTTGCC", "PBM E-score": -0.183}
{"sequence": "AGGCACCT", "PBM E-score": -0.174}
{"sequence": "CCTGGCCC", "PBM E-score": -0.22}
{"sequence": "CTCAATCA", "PBM E-score": 0.0803}
{"sequence": "CTAAGTAA", "PBM E-score": 0.147}
{"sequence": "ACGTAACG", "PBM E-score": 0.39}
{"sequence": "AGCGCAAG", "PBM E-score": -0.163}
{"sequence": "CTCCGTCA", "PBM E-score": 0.222}
{"sequence": "AGTGGGTC", "PBM E-score": -0.224}
{"sequence": "TAATGATA", "PBM E-score": 0.387}
{"sequence": "GGTGCCAC", "PBM E-score": -0.226}
{"sequence": "AAAATGAT", "PBM E-score": 0.298}
{"sequence": "CTTTCCCA", "PBM E-score": -0.134}
{"sequence": "ACGCTCTA", "PBM E-score": -0.206}
{"sequence": "CGCTGCGA", "PBM E-score": 0.0077}
{"sequence": "AGCGTAAC", "PBM E-score": 0.186}
{"sequence": "GACGAGTC", "PBM E-score": -0.125}
{"sequence": "CCGTTACG", "PBM E-score": 0.238}
{"sequence": "AAAGTTGG", "PBM E-score": 0.0124}
{"sequence": "GCCCGCGC", "PBM E-score": -0.0241}
{"sequence": "AATCGTCA", "PBM E-score": 0.34}
{"sequence": "CAGGCAGG", "PBM E-score": -0.0868}
{"sequence": "CACCCCTG", "PBM E-score": -0.299}
{"sequence": "ACCGTAGG", "PBM E-score": -0.26}
{"sequence": "AATCGTGA", "PBM E-score": 0.0888}
{"sequence": "CGCGTTAA", "PBM E-score": -0.0164}
{"sequence": "CGGCGACG", "PBM E-score": 0.164}
{"sequence": "CCTATCCG", "PBM E-score": -0.206}
{"sequence": "AGAAAAGG", "PBM E-score": 0.0591}
{"sequence": "TACATACA", "PBM E-score": 0.167}
{"sequence": "GATGATAC", "PBM E-score": 0.127}
{"sequence": "ATAAACGG", "PBM E-score": 0.221}
{"sequence": "GCTAATAA", "PBM E-score": -0.0637}
{"sequence": "CGCGGTTA", "PBM E-score": 0.0396}
{"sequence": "ACGTTTTG", "PBM E-score": 0.138}
{"sequence": "GGCGAGCA", "PBM E-score": -0.214}
{"sequence": "GTCTAAAA", "PBM E-score": -0.0387}
{"sequence": "CCGGTGAG", "PBM E-score": -0.116}
{"sequence": "GGATTGCA", "PBM E-score": 0.0154}
{"sequence": "AAAGGTGA", "PBM E-score": -0.0439}
{"sequence": "GGGAGATA", "PBM E-score": -0.186}
{"sequence": "CCGATCGC", "PBM E-score": -0.0261}
{"sequence": "AGAGAATC", "PBM E-score": 0.067}
{"sequence": "CGAACACA", "PBM E-score": 0.00717}
{"sequence": "TCATCGAA", "PBM E-score": 0.21}
{"sequence": "AGTATGAT", "PBM E-score": 0.235}
{"sequence": "ATAAAAGC", "PBM E-score": 0.0835}
{"sequence": "AGTGGTTC", "PBM E-score": -0.139}
{"sequence": "TTACCAAA", "PBM E-score": 0.218}
{"sequence": "GATGAGGC", "PBM E-score": -0.171}
{"sequence": "ACGTCAGT", "PBM E-score": 0.472}
{"sequence": "GACGTATA", "PBM E-score": 0.322}
{"sequence": "CACGCCAA", "PBM E-score": 0.139}
{"sequence": "CACGTCGG", "PBM E-score": -0.176}
{"sequence": "CAATCGGA", "PBM E-score": -0.0214}
{"sequence": "CCTGTACG", "PBM E-score": -0.125}
{"sequence": "AGTGTCGG", "PBM E-score": -0.143}
{"sequence": "ATACTAAG", "PBM E-score": 0.0167}
{"sequence": "CCTTGCCA", "PBM E-score": -0.0783}
{"sequence": "GAATTCCC", "PBM E-score": -0.21}
{"sequence": "CCGAGAAA", "PBM E-score": 0.105}
{"sequence": "ATGCTGCC", "PBM E-score": 0.0106}
{"sequence": "ACTAGCAG", "PBM E-score": -0.118}
{"sequence": "CTGTAGTC", "PBM E-score": -0.19}
{"sequence": "AGCTCTAC", "PBM E-score": -0.186}
{"sequence": "CCAGCAGC", "PBM E-score": -0.176}
{"sequence": "AGGGTCAA", "PBM E-score": -0.0181}
{"sequence": "ATAAGTTA", "PBM E-score": 0.237}
{"sequence": "GGTAATAC", "PBM E-score": 0.111}
{"sequence": "AGCCCTTA", "PBM E-score": -0.223}
{"sequence": "GTCGTAAC", "PBM E-score": 0.095}
{"sequence": "ACCGATAA", "PBM E-score": 0.102}
{"sequence": "GAAGCGCA", "PBM E-score": -0.0838}
{"sequence": "GCCTCTAC", "PBM E-score": -0.211}
{"sequence": "ATGCATAG", "PBM E-score": -0.0354}
{"sequence": "CGCTAAGA", "PBM E-score": -0.0575}
{"sequence": "GCGTAAGC", "PBM E-score": 0.0902}
{"sequence": "CCGTGTAG", "PBM E-score": 0.0158}
{"sequence": "CAGCTATA", "PBM E-score": -0.0669}
{"sequence": "CGCGTGCA", "PBM E-score": -0.0887}
{"sequence": "CGAATCAA", "PBM E-score": 0.215}
{"sequence": "CTCAGTCC", "PBM E-score": -0.101}
{"sequence": "CAACCATA", "PBM E-score": 0.2}
{"sequence": "ATGCAACG", "PBM E-score": 0.0792}
{"sequence": "AGGTATGA", "PBM E-score": 0.115}
{"sequence": "ACAACGTC", "PBM E-score": 0.219}
{"sequence": "GGCTTCCA", "PBM E-score": -0.132}
{"sequence": "ATGATAAC", "PBM E-score": 0.263}
{"sequence": "GATGAGCC", "PBM E-score": -0.139}
{"sequence": "CACGGGTC", "PBM E-score": 0.141}
{"sequence": "CGCCCCTC", "PBM E-score": -0.142}
{"sequence": "GGATTCCA", "PBM E-score": 0.133}
{"sequence": "GACGGTAC", "PBM E-score": -0.00492}
{"sequence": "CACCATGA", "PBM E-score": 0.185}
{"sequence": "ATCACATA", "PBM E-score": 0.274}
{"sequence": "CAGATCTA", "PBM E-score": -0.129}
{"sequence": "CACATTCG", "PBM E-score": 0.0894}
{"sequence": "AGTCCACG", "PBM E-score": -0.102}
{"sequence": "ATTACCGA", "PBM E-score": 0.122}
{"sequence": "ATCGGTGA", "PBM E-score": 0.229}
{"sequence": "AGATTATC", "PBM E-score": 0.0114}
{"sequence": "AATGCTCA", "PBM E-score": -0.0154}
{"sequence": "AGCGAAGG", "PBM E-score": 0.00897}
{"sequence": "CCGTTATC", "PBM E-score": -0.00181}
{"sequence": "CTCCCTAA", "PBM E-score": -0.16}
{"sequence": "GACGGAGC", "PBM E-score": -0.0117}
{"sequence": "ACAATCAA", "PBM E-score": 0.149}
{"sequence": "CCCTAGCG", "PBM E-score": -0.333}
{"sequence": "AACGACAA", "PBM E-score": 0.153}
{"sequence": "AAATGATG", "PBM E-score": 0.332}
{"sequence": "CCGCTTTA", "PBM E-score": 0.0653}
{"sequence": "GCCCGAAA", "PBM E-score": 0.0285}
{"sequence": "ATAGATTA", "PBM E-score": 0.206}
{"sequence": "CATCGCAG", "PBM E-score": -0.135}
{"sequence": "GCCGTCCA", "PBM E-score": 0.151}
{"sequence": "AGACGCTG", "PBM E-score": -0.214}
{"sequence": "GGGTGTTA", "PBM E-score": -0.0706}
{"sequence": "ATGACCGC", "PBM E-score": 0.209}
{"sequence": "CTTTCCGA", "PBM E-score": -0.131}
{"sequence": "CGCGAACA", "PBM E-score": -0.00246}
{"sequence": "AATTGCTC", "PBM E-score": -0.0979}
{"sequence": "ACTGATCA", "PBM E-score": 0.136}
{"sequence": "GTACGCAC", "PBM E-score": -0.1}
{"sequence": "GAGTCCAA", "PBM E-score": -0.115}
{"sequence": "CCATCGTC", "PBM E-score": -0.0545}
{"sequence": "CACTGGTA", "PBM E-score": 0.0414}
{"sequence": "GGTACACC", "PBM E-score": -0.287}
{"sequence": "AATAGAAT", "PBM E-score": 0.133}
{"sequence": "ATCACTAG", "PBM E-score": 0.164}
{"sequence": "AATGTACT", "PBM E-score": 0.0583}
{"sequence": "CTAGTCCC", "PBM E-score": -0.241}
{"sequence": "CAACAGAC", "PBM E-score": -0.0113}
{"sequence": "TGACGGCA", "PBM E-score": 0.371}
{"sequence": "CAGAAAAC", "PBM E-score": 0.224}
{"sequence": "ACGGCTCG", "PBM E-score": 0.312}
{"sequence": "GTCAACAC", "PBM E-score": 0.227}
{"sequence": "CAGCTGTA", "PBM E-score": -0.172}
{"sequence": "CACCGGTA", "PBM E-score": 0.018}
{"sequence": "TATTCGAA", "PBM E-score": -0.0158}
{"sequence": "CTTACATC", "PBM E-score": 0.365}
{"sequence": "TACCGTGA", "PBM E-score": 0.0115}
{"sequence": "GAGACGGA", "PBM E-score": 0.0715}
{"sequence": "ACTGTCAA", "PBM E-score": 0.0674}
{"sequence": "CTTGAGTC", "PBM E-score": -0.172}
{"sequence": "ATAGAGCG", "PBM E-score": -0.122}
{"sequence": "ATGGTGCA", "PBM E-score": 0.0455}
